Source: a collection of fitness landscapes (doi:10.1126/science.1257360)
This is one part of the list.

B1: PhoQ; a variant is named by its letters at X, in order, P23837 (parent)
chain: MKKLLRLFFPLSLRVRFLLATAAVVLVLSLAYGMVALIGYSVSFDKTTFRLLRGESNLFYTLAKWENNKLHVELPENIDKQSPTMTLIYDENGQLLWAQRDVPWLMKMIQPDWLKSNGFHEIEADVNDTSLLLSGDHSIQQQLQEVREDDDDAEMTHSVAVNVYPATSRMPKLTIVVVDTIPVELKSSYMVWSWFIYVLSANLLLVIPLLWVAAWWSLRPIEALAKEVRELEEHNRELLNPATTRELTSLVRNLNRLLKSERERYDKYRTTLTDLTHSLKTPLXXLQXXLRSLRSEKMSVSDAEPVMLEQISRISQQIGYYLHRASMRGGTLLSRELHPVAPLLDNLTSALNKVYQRKGVNISLDISPEISFVGEQNDFVEVMGNVLDNACKYCLEFVEISARQTDEHLYIVVEDDGPGIPLSKREVIFDRGQRVDTLRPGQGVGLAVAREITEQYEGKIVAGESMLGGARMEVIFGRQHSAPKDE

Variants of: B1
Test: enrichment ratio after two sorts for PhoP signalling (ratio (wild type AVST 3.29)); higher = more functional
Settings: with PhoP (E. coli)

Variant | enrichment ratio
PGNK | ≤ 0.25
MVFN | 9.27
IWWR | ≤ 0.25
YYVS | ≤ 0.25
APDH | ≤ 0.25
TSRD | ≤ 0.25
TLDY | ≤ 0.25
WAKV | ≤ 0.25
QPPW | ≤ 0.25
ICAN | ≤ 0.25
FMFW | ≤ 0.25
TTGK | ≤ 0.25
HRRM | ≤ 0.25
VFKA | ≤ 0.25
LMPM | ≤ 0.25
SNCN | 7.42
RLEQ | ≤ 0.25
DVFM | ≤ 0.25
DMFI | ≤ 0.25
ENRS | ≤ 0.25
DHTC | ≤ 0.25

Variant | enrichment ratio
PPVV | ≤ 0.25
HIFH | ≤ 0.25
WPWD | ≤ 0.25
WVLT | ≤ 0.25
DQDD | ≤ 0.25
GHFY | ≤ 0.25
YMWP | ≤ 0.25
VMND | ≤ 0.25
HKIF | ≤ 0.25
QFET | ≤ 0.25
PNHT | ≤ 0.25
FADC | ≤ 0.25
PGAE | ≤ 0.25
TCLF | 3.32
QDQR | ≤ 0.25
WTDP | ≤ 0.25
DAVV | ≤ 0.25
SKST | 8.48
LGWY | ≤ 0.25
TKHA | ≤ 0.25
VEQF | ≤ 0.25

Variant | enrichment ratio
MCQR | ≤ 0.25
MNEG | ≤ 0.25
NYKF | ≤ 0.25
EDQA | ≤ 0.25
ISVP | ≤ 0.25
VHIN | ≤ 0.25
NWLL | ≤ 0.25
PYRM | ≤ 0.25
NSQN | ≤ 0.25
DMGA | 2.33
ASLT | 11.9
VEAS | 3.57
LSED | ≤ 0.25
YGHG | ≤ 0.25
SNNR | ≤ 0.25
FSCF | ≤ 0.25
YTGE | ≤ 0.25
DTHF | ≤ 0.25
EQWR | ≤ 0.25
FQVC | ≤ 0.25
PNDL | ≤ 0.25

Variant | enrichment ratio
WHNL | ≤ 0.25
VWWV | ≤ 0.25
PCYR | ≤ 0.25
WLHQ | ≤ 0.25
FPSF | ≤ 0.25
TLEK | ≤ 0.25
IKIW | ≤ 0.25
THCV | 4.19
DRIL | ≤ 0.25
LHEP | 0.81
FFNN | ≤ 0.25
DWTL | ≤ 0.25
FLNW | ≤ 0.25
MNTR | ≤ 0.25
YCPC | ≤ 0.25
YWYP | ≤ 0.25
ENCF | ≤ 0.25
YEMW | ≤ 0.25
YLYP | ≤ 0.25
HSAC | ≤ 0.25
GKHE | ≤ 0.25
